Data published in ChEMBL document CHEMBL1157539, “Thousands of chemical starting points for antimalarial lead identification” (Nature, 2010).
The full ranking holds about 13,000 compounds; the median of “IFI” is about 4, and the highest 2% start at about 17. The list shows a part of the results.

test: GSK_TCMDC: Inhibition Frequency Index (IFI). The number of non-kinase HTS assays where a compound showed > 50 % inhibition, expressed as a percentage of the number of such assays in which the compound was tested (-0 is zero); format: functional

Compound	IFI [%]
O=C(Cc1ccsc1)NCC(c1ccccc1Cl)c1c[nH]c2ccccc12 (stereo unspecified)	2.78
O=C(Cn1c(SCc2cccc(F)c2F)cc(=O)c2ccccc21)N(Cc1ccc(-c2ccc(C(F)(F)F)cc2)cc1)C1CCN(CCO)CC1	10.1
CCN(CC)/C(=N/C(=N)Nc1ccc(C)cc1)NCCCCCCN/C(=N\C(=N)Nc1ccc(C)cc1)N(CC)CC	5.22
CC(C)Cc1ccc(N2CCN(CCCCNC(=O)c3ccc(NC(=O)c4cc(C(F)(F)F)cc(C(F)(F)F)c4)cc3)CC2)cc1	0
NC(=O)c1ccccc1Nc1nc(Nc2cc[nH]n2)ncc1Cl	-0
O=C(/C=C/c1ccc(C(F)(F)F)cc1)NCCCCCN1CCCN(C(=O)Nc2ccc(Cl)cc2)CC1	9
CCCCNCc1ccc(OCc2cccc(COc3ccc(CNCCCC)cc3I)c2)c(I)c1	7.97
CC(C)(C)c1ccc(CN2CCC(CNC(=O)c3cc(-c4cccc(F)c4)cs3)C2)cc1 (stereo unspecified)	14.6
COc1ccccc1N1CCN(CCCCNC(=O)c2ccc(NC(=O)c3ccc(C(F)(F)F)cc3)cc2)CC1	3.1
CCCCN(CCCC)Cc1cc(Nc2ccnc3cc(Cl)ccc23)ccc1O	1.82
Brc1ccc(Nc2nc(NCC3CCCO3)c3ccccc3n2)cc1 (stereo unspecified)	7.04
Cc1ccc2[nH]c(C3CCCNC3)c(-c3ccncc3)c2c1 (stereo unspecified)	4.76
CN1CCN(CC(=O)Nc2ccc(-c3ccc(-c4nc5cc(C(F)(F)F)ccc5[nH]4)cc3)cc2)CC1	5.45
COC(=O)c1ccc(CCC(C)NCC(O)c2cccc(C(F)(F)F)c2)cc1 (stereo unspecified)	6.02
CCCCCCCCS(=O)(=O)NCCCC1CCN(CCCCCNC(=O)C=Cc2ccc(Cl)c(Cl)c2)CC1	8.63
CCOc1cccc(C(=O)Nc2ccc(-c3nc4ccccc4[nH]3)cc2)c1	2.74
COc1ccc(CCNc2nc(NCCc3cnc[nH]3)nc(NCc3cccc4ccccc34)n2)cc1OC	6.72
O=C(Nc1cccc(CN2CCN(Cc3ccc(O)cc3)CC2)c1)c1cc2ccccc2s1	2.97
O=C(Nc1ccc(Cn2nc(Cl)c(N3CCCNCC3)cc2=O)cc1)Nc1ccc(-c2ccccc2)cc1	8.28
O=C(Nc1ccc(-c2nc3cc4ccccc4cc3[nH]2)cc1)c1cccc(Br)c1	1.36
CC(=O)Nc1ccc(Nc2ncc([N+](=O)[O-])c(Nc3ccccc3C(N)=O)n2)cc1	2.92
N=C(Nc1ccccc1)Nc1cccc(Cc2ccc([N+](=O)[O-])cc2)n1	19.9
O=C(NCc1ccccc1)Nc1ccc(-c2ccc(-c3nc4cc(C(F)(F)F)ccc4[nH]3)cc2)cc1	1.01

Compound	IFI [%]
O=C(CC(=O)Nc1cc(Cl)cc(Cl)c1)Nc1cc(Cl)cc(Cl)c1	0
CCC1CN2CCc3c([nH]c4ccccc34)C2CC1CC1NCCc2cc(OC)c(OC)cc21 (stereo unspecified)	7.81
Cn1ccnc1CNC(=O)c1ccc(-c2ccc(-c3nc4cc(C(F)(F)F)ccc4[nH]3)s2)cc1	4.59
Clc1ccc(-c2cc(-c3csc(NCCN4CCCCC4)n3)on2)cc1	13.3
FC(F)(F)COc1ccc(CNCCCCCCNCc2ccc(OCC(F)(F)F)c3ccccc23)c2ccccc12	21
COc1ccc2nccc([C@@H](O)CN3CCC(NCCOc4ccncc4)CC3)c2c1	0.75
CCN(CC)C(=O)C1CCCN(C(=O)Nc2cc(C(F)(F)F)cc(C(F)(F)F)c2)C1 (stereo unspecified)	6.82
CN(C)CCCOc1cc(NC(=O)Nc2ccc(-c3ccncc3)c3ccccc23)ccc1I	9.77
CCN1CCN(c2ccc(Nc3ccnc4ccc(Br)cc34)cc2)CC1	4.32
O=C(NC1CC1)c1cnc(N2CCC(c3ccccc3)CC2)c(Cl)c1	8.33
CC(=O)Nc1ccc(CN(C)C2CCN(c3cc(NC(=O)c4cccc(C)c4)ccn3)CC2)cc1	2.78
CC1(C)N=C(N)N=C(N)N1c1ccc(Oc2ccccc2)cc1	1.47
CCOC(=O)CCCCCNC[C@H](O)c1ccccc1	0
Cc1cc(Br)c(OCCCON2C(=N)N=C(N)NC2(C)C)c(Br)c1	10.4
O=C([C@H]1CCCCN1c1ccc([N+](=O)[O-])c2ccccc12)N1CCN(c2ncccn2)CC1	2.16
CN1CCC(NCc2ccc(-c3cccc(S(=O)(=O)NCc4ccccc4)c3)cc2)CC1	9.71
Cc1ccc2nc(C)n(C3CCN(C(=O)Cc4ccc(F)c(F)c4)CC3)c2c1	-0
Cc1cc(N(C)C)nc(Nc2ccc(NS(=O)(=O)c3ccccc3)cc2)n1	9.62
CCC(C)NC(=O)Nc1ccc(-c2cccc(-c3nc4cccc(C)c4[nH]3)c2)cc1 (stereo unspecified)	4.85
COc1cccc(CN2CCCN(Cc3cccc(NC(=O)c4ccc(Cl)c(Cl)c4)c3)CC2)c1	5.96
CC(C)NCc1ccc(-c2cccc(-c3nc4cc(C(F)(F)F)ccc4[nH]3)c2)cc1	5.71
COc1ccc(CN2CCC(CNCc3cccc(-c4ccccc4)c3)CC2)cc1	8.97
Cc1cccc2nc(-c3cccc(-c4cccc(CNCc5cnn(-c6ccccc6)n5)c4)c3)[nH]c12	1.64

Compound	IFI [%]
CC(C)COc1ccc(Cl)cc1Cc1nc(-c2nc3cccc(CN4CCN(C)CC4)c3[nH]2)cs1	10.3
CC(C)C(=O)NC(c1ccc(Cl)cc1)c1ccc2cccnc2c1O (stereo unspecified)	14.3
COc1ccc(CCN(C)CCOc2ccc(NC(=O)c3cccc4c(=O)c5cc(SC)ccc5[nH]c34)cc2)cc1OC	3.45
O=C(Nc1ccc(-c2cccc(-c3nc4ccccc4[nH]3)c2)cc1)NC1CC1c1ccccc1 (stereo unspecified)	7
CCCN1CCN(CCCNC(=O)c2cc3c(Cl)nc4ccc(C)cc4c3s2)CC1	5.13
O=C(Nc1ccc(F)cc1)N1CCCN(c2ccnc3cc(Cl)ccc23)CC1	1.54
CCN1CCN(c2cc(C)c3cc(NC(=O)c4cccc(Cl)c4)ccc3n2)CC1	3.55
CN1CCN(CC(=O)Nc2cccc(-c3ccc(-c4nc5cc(F)ccc5[nH]4)cc3)c2)CC1	4.5
O=C(NCCCN1CCCCC1)c1cccc(Nc2nccc(Nc3ccc(Oc4ccccc4)cc3)n2)c1	2.92
Cc1ccc(NC(=O)c2ccc(CN3CCCN(CCC(C)C)CC3)cc2)cc1C	3.97
COc1ccc(-c2nc(NC(=O)CSc3ccc([N+](=O)[O-])cc3)sc2C)cc1	7.21
CCCN(CCC)S(=O)(=O)c1ccc(C(=O)Nc2nc3ccc(-c4cc(=O)[nH]c(Nc5ccccc5Cl)n4)cc3[nH]2)cc1	4.17
COc1ccc2ncc(F)c(CCN3CCC(NCc4cnc5c(c4)NC(=O)CS5)CC3)c2c1	1.45
OC(CN1CCN(c2cccc(Cl)c2)CC1)C(c1ccccc1)c1ccccc1 (stereo unspecified)	0.75
COc1ccc2nccc(N3CCCN(CCNCc4ccc5c(n4)NC(=O)CS5)CC3)c2n1	2.8
O=C(NCCCCN1CCN(c2cccc(Cl)c2Cl)CC1)c1ccc2c(c1)CCN(C1CCC1)CC2	10
COc1ccc(CN2CCCN(Cc3cccc(NC(=O)c4ccc5ccccc5c4)c3)CC2)cc1	5.52
CCOC(=O)c1ccc(N2CCN(c3cc(Cl)ccc3C)CC2)c(NC(=O)Nc2ccc(Cl)c(Cl)c2)c1	-0
CN(C)CCCOc1c(C(C)(C)C)cc(-c2cc(C(C)(C)C)c(OCCCN(C)C)c(C(C)(C)C)c2)cc1C(C)(C)C	4.93
COc1ccccc1Cc1c(C)nc2nc(N)nc(N)c2c1C	2.24
CC(C)(CNC(=O)[C@@H]1CCCN(CCOc2ccc(Cl)cc2)C1)c1nc(-c2ccc(Cl)c(O)c2)c(-c2ccncc2)[nH]1	2.92
Cc1nc(C(C)Nc2nncc(-c3ccc(Cl)cc3)n2)cs1 (stereo unspecified)	0
COc1ccc(Nc2nccc(NCCNC(=O)Nc3ccccc3F)n2)cc1	3.08

Compound	IFI [%]
O=C(Nc1cccc(-c2ccc(NCCCN3CCCC3)nc2)c1)c1ccccc1	0
Cc1cc(NC(=O)CCN2CCN(c3cccc(Cl)c3Cl)CC2)ccc1N1CCN(C(C)C)CC1	13.2
CC(C)(CNCc1ccc(F)c(F)c1)c1nc(-c2ccc(Cl)c(O)c2)c(-c2ccncc2)[nH]1	7.8
CC(C)N1CCN(C(CN2CCN(CCCOc3cccc4ccccc34)CC2)c2ccc(F)cc2)CC1 (stereo unspecified)	11.5
CCCc1cc2c3c(N)nc(N)nc3ccc2n1C(CC)CC	8.84
Cc1cccc2nc(-c3ccc(-c4cccc(CNCc5ccccc5)c4)cc3)[nH]c12	5.77
Cc1cc(NCCC(=O)NCCOc2ccccc2)nc(NCCc2ccccc2)n1	6.82
CC(=O)c1sc2ccccc2c1O	1.47
Cc1ccc(/C=C/C(=O)NC2CCC(N3CCC(c4ccccc4C)CC3)CC2)cc1F (stereo unspecified)	13.3
COc1ccc2nccc([C@@H](O)CN3CCC(NCCOc4cc(C(F)(F)F)ccc4F)CC3)c2c1	2.21
CC(C)Cc1c(O)nc(SCCN2CCOCC2)[nH]c1=O	-0
COc1ccc(C(=O)Cn2nc(-c3ccc(Cl)cc3)ccc2=O)c(OC)c1	3.7
COc1cccc(CCc2ccc(O)c3c2C[C@H]2C[C@H]4[C@H](N(C)C)C(O)=C(C(N)=O)C(=O)[C@@]4(O)C(O)=C2C3=O)c1	8.41
O=c1cc(NCCCNCc2ccc(C(F)(F)F)c(F)c2)[nH]c2ccccc12	5.07
O=S(=O)(c1cccc(C(F)(F)F)c1)N1CCC(CO)(Cc2cccc(C(F)(F)F)c2)CC1	4.76
COc1ccc2nc(N)nc(C)c2c1	2.24
Nc1ccc(-c2cc(Cl)cc(Cl)c2)cc1-c1cc2ccccc2[nH]1	-0
O=[N+]([O-])c1ccc(Nc2nc(N/N=C/c3cc(Cl)cc(Cl)c3O)nc(Nc3ccccc3)n2)cc1	4.83
O=C(CCC1CCCCC1)NCCNc1cccc2ccccc12	1.47
COc1cc2nccc(Nc3ccc4c(cnn4Cc4ccccc4F)c3)c2cc1OC	3.76
Cc1onc(-c2ccccc2Cl)c1C(=O)Nc1cc(Cl)c(Cl)cc1Cl	1.45
Cc1ccc2[nH]c(-c3ccccc3)cc(=NN=Cc3cccnc3)c2c1	1.52
